Source: PubChem BioAssay AID662 (National Center for Advancing Translational Sciences (NCATS), 2007)
Among all 71,000 compounds or so, about 1,800 (2.5%) were called active. The shares of active, inactive and inconclusive entries below differ from those in the screen. Calls follow the shape of the dose curve; as a rule, active = well fitted activation curve with a large enough effect in the signal ratio, with a control signal flat (not every such curve was filed as active); inconclusive = small, poorly fitted or top-dose-only effect, or effect the other way, or a change in a side signal; inactive = flat fitted curve, though single readings scatter; the % refers to the signal ratio. Potencies of inconclusive entries are doubtful fits and often do not repeat.

Test: Cell signaling CRE-BLA (Fsk stim); as to activity change, negative = inhibition: % of control where 0% means no effect
Settings: CHO CRE-bla reporter (cAMP response element driving beta-lactamase), forskolin EC10, beta-lactamase ratio; activity change, negative = inhibition: at 38.2 µM (top of the series) unless noted
Procedure, shortened: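 Forskolin analogue NKH 477 at EC10 stimulated CRE-driven beta-lactamase in CHO cells alongside compound dilution series. Beta-lactamase was measured with CCF4, excitation 405 nm, emission ratio 460/530 nm.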
Potency is read from the fitted curve at half-maximal effect; tags tell the direction and shape of the fitted curve.

Row | Compound | activity change, negative = inhibition | Potency
1 | Cc1ccc(C)c(Cc2c(C)nc3c(C(=O)N4CCOCC4)cnn3c2C)c1 | inconclusive: 24.4% | 
2 | CCOC(=O)c1oc2nc3c(cc2c1N)COC(C)(C)C3 | inconclusive: 22.1% | 
3 | O=C(Nc1cccnc1)c1ccccc1Oc1ccccc1 |  | inconclusive: 0.2 µM [rising, full curve, poor fit]
4 | CC(=O)N1CCc2cc(S(=O)(=O)NCCC(=O)N3CCN(Cc4ccccc4)CC3)ccc21 |  | inconclusive: 12.6 µM [rising, partial curve]
5 | Cn1c2ccccc2c2cnn(CC(=O)N3CCN(c4ncccn4)CC3)c(=O)c21 | inactive | 
6 | CN(Cc1cnc2nc(N)nc(N)c2n1)c1ccc(C(=O)N[C@@H](CCC(=O)O)C(=O)O)cc1 | inactive | 
7 | CC(=O)Nc1cnc(NC(=O)c2cccc(F)c2)cc1C | inactive | 
8 | COc1ccccc1N1CCN(C(c2cc3cc(C)ccc3[nH]c2=O)c2nnnn2C2CCCC2)CC1 (stereo not given) | inactive | 
9 | CCOc1ccc(N(CC(=O)N2CCc3ccccc32)S(=O)(=O)c2c(C)noc2C)cc1 | inconclusive: 14.2% [cytotoxic] | 
10 | CCCn1c(=O)[nH]c2nc(-c3ccc(S(=O)(=O)O)cc3)[nH]c2c1=O | inconclusive: 6.15% | 
11 | O=c1cnc2cnc(Nc3ccccc3)nc2n1Cc1cccs1 | inconclusive: 25.2% | 
12 | CS(=O)(=O)N1CCN(C(=O)c2cc(-c3cccs3)nc3ccccc23)CC1 | inactive | 
13 | COc1cc(/C=c2\s/c(=C(/C#N)C(=O)N3CCCC3)n(-c3ccccc3)c2=O)ccc1O | inconclusive: 15.2% | 
14 | CN1CCN(c2ncc3nc(-c4ccc(Cl)cc4)c(=O)n(Cc4cccs4)c3n2)CC1 |  | inconclusive: 0.2 µM [rising, full curve]
15 | CCc1c(C(=O)Nc2ccc(OC)cc2)[nH]c(C)c1C(C)=O | inconclusive: -28.5% | 
16 | CCOC(=O)c1ccc(OCc2nc(-c3cccs3)no2)cc1 | inconclusive: 5.83% | 
17 | CCOC(=O)N1CCN(C(=O)CSc2nnc(Cc3ccccc3)o2)CC1 | inactive | 
18 | CC1CN(c2c3c(nc4ncnn24)CCCC3)CC(C)O1 (stereo not given) | inconclusive: 18.1% | 
19 | CCC(C)(C(=O)NC1CCCCC1)N(C(=O)c1cnccn1)c1c(C)n(C)n(-c2ccccc2)c1=O (stereo not given) | inconclusive: 24.4% | 
20 | COc1ccc(C2CC(=O)N3C(=C2C#N)SCC3(O)c2ccccc2)cc1 (stereo not given) | inconclusive: 23.3% | 
21 | CC(C)CCn1cnc2c(c1=O)c1nc3ccccc3nc1n2Cc1ccc2c(c1)OCO2 | inconclusive: 4.79% | 
22 | COc1ccc(N(CC(=O)NC2CCCC2)C(=O)c2ccc(N3CCCCC3)nc2)cc1 | inactive | 
23 | OC(COCc1ccccc1)CN1CCN(c2ccccc2)CC1 (stereo not given) |  | inconclusive: 3.98 µM [falling, single point]
24 | C/C=C/Cn1c(Br)nc2c1c(=O)[nH]c(=O)n2C |  | inconclusive: 25.1 µM [rising, single point]
25 | Cc1ccc(NC(=O)c2cc(-c3cccc(O)c3)on2)cc1C | inconclusive: -20.6% | 
26 | CC(=O)Nc1ccc(N/C=C/C(=O)c2ccco2)cc1 | inactive | 
27 | CCOC(=O)c1sc(NC(=O)CSc2ncn(-c3ccccc3)n2)nc1C |  | inconclusive: 3.98 µM [rising, partial curve]

Row | Compound | activity change, negative = inhibition | Potency
28 | COc1ccc(OC)c(-c2[nH]nc3c2C(c2ccco2)C(C#N)=C(N)O3)c1 (stereo not given) | inconclusive: -20.7% | 
29 | CC(C)CCSc1nc2c(c(=O)[nH]c(=O)n2C)n1CCc1ccccc1 | inconclusive: 10.6% | 
30 | Cc1occc1C(=O)Nc1cccnc1 | inactive | 
31 | CN1C(=O)N(S(=O)(=O)c2ccc(F)c(F)c2F)C(=O)C1(C)C |  | inconclusive: 15.8 µM [rising, single point]
32 | COc1ccc(NC(=O)c2ccccc2Cl)cc1NC(=O)CN1CCOCC1 |  | inconclusive: 20 µM [rising, single point]
33 | Cc1ccc(C)n1-c1ccc(-c2nnc3n2CCCCC3)s1 |  | inconclusive: 5.01 µM [falling, single point]
34 | COC(=O)CSc1nc2sc3c(c2c(=O)n1-c1ccccc1)CCN(C)C3 |  | inconclusive: 10 µM [rising, single point]
35 | CCOc1ccc2nc(SCc3ccc(C(=O)OC)o3)[nH]c2c1 |  | inconclusive: 12.6 µM [rising, single point]
36 | CC(=NCc1ccco1)C1=C(O)c2ccccc2C1=O |  | inconclusive: 10 µM [rising, single point]
37 | c1ccc(CN2COc3c(ccc4c5c(ccc34)CN(Cc3ccccc3)CO5)C2)cc1 | inactive: -6.73% [at 7.6 µM] | 
38 | O=C(c1cccc(F)c1)N1CCC2(CCN(Cc3ccccc3)CC2)CC1 | inactive | 
39 | Cn1c(C(=O)NCCN2CCc3ccccc3C2)cc2c(=O)n(C)c3ccccc3c21 |  | inconclusive: 6.31 µM [rising, partial curve]
40 | COc1ccc(Nc2ncnc3c2cnn3Cc2ccccc2)cc1OC |  | inconclusive: 7.94 µM [rising, partial curve]
41 | COc1ccccc1N1CCN(C(CNS(=O)(=O)c2ccc(C)cc2)c2cccnc2)CC1 (stereo not given) |  | inconclusive: 0.126 µM [falling, partial curve]
42 | COc1cccc(OCC(=O)Nc2ccccc2NC(C)=O)c1 | inconclusive: 18.2% | 
43 | CCn1cnc2sc(C(=O)Nc3ccc4c(c3)OCO4)c(C)c2c1=O | inconclusive: 76.2% | 
44 | Cc1nn2c(N3CCOCC3)c3c(nc2c1-c1ccccc1)CCCC3 | inactive | 
45 | S=C(NC1CCCCC1)NC1CCCCC1 | inactive | 
46 | O=C(NCCc1nc2ccccc2[nH]1)c1ccco1 |  | inconclusive: 3.98 µM [falling, single point]
47 | N#Cc1c(N)nc2c(c1-c1ccncc1)CCCCC2 |  | inconclusive: 10 µM [rising, partial curve]
48 | CCOC(=O)C1CCCN(C(=O)c2cc3c(=O)n4cccc(C)c4nc3n2C)C1 (stereo not given) | inactive | 
49 | Fc1ccc2nc(Nc3nc4c(s3)CCCC4)sc2c1 |  | inconclusive: 12.6 µM [rising, partial curve]
50 | O=C1c2ccccc2S(=O)(=O)N1CC(O)Cn1c2ccccc2c2ccccc21 (stereo not given) | inconclusive: 8% [cytotoxic] | 
51 | COc1ccc(C(=O)Nc2ccccc2C(=O)NCc2ccco2)cc1OC |  | inconclusive: 12.6 µM [rising, single point]
52 | O=C(CSc1ncccn1)NCCc1ccccc1 | inconclusive: 4.29% [at 7.6 µM] | 
53 | CCn1c(SCC(=O)Nc2ccc3c(c2)OCCO3)nnc1-c1ccccn1 | inconclusive: 25.1% | 
54 | O=C(NCCCN1CCOCC1)C(C(=O)c1ccccc1)n1ccccc1=O (stereo not given) | inactive | 

Row | Compound | activity change, negative = inhibition | Potency
55 | COc1cccc(-n2nnc3c(=O)n(Cc4ccc(C)cc4)cnc32)c1 | inconclusive: 12.9% | 
56 | Cc1oc(-c2ccccc2F)nc1CS(=O)CC(=O)NCc1cccs1 (stereo not given) | inactive | 
57 | CCNc1ccc(C(=O)OCC)cc1NC(=O)c1cccc(N(C)C)c1 |  | inconclusive: 25.1 µM [rising, single point]
58 | COc1ccc(S(=O)(=O)NC2CCCC2)cc1Br | inconclusive: 14.5% | 
59 | c1ccc(-n2ncc3c(NCc4ccco4)ncnc32)cc1 |  | inconclusive: 3.16 µM [rising, full curve]
60 | Cc1nc2cccc(C(=O)NC3CCCCC3)c2o1 |  | inconclusive: 20 µM [rising, partial curve]
61 | CCOC(=O)CCCn1nc(C)n2c(cc3sccc32)c1=O | inconclusive: 16.8% | 
62 | COc1cc(CNc2ccc3[nH]c(=O)[nH]c3c2)cc(Cl)c1OCC(=O)NC(C)(C)C | inactive | 
63 | O=C(c1cc(-c2ccccc2O)on1)N1CCc2ccccc2C1 | inactive | 
64 | CC(=O)c1ccccc1OCC(O)CN1CCN(C(c2ccccc2)c2ccccc2)CC1 (stereo not given) | inactive | 
65 | Cn1c(=O)c2cn3ncccc3c2n(C)c1=O |  | inconclusive: 0.316 µM [rising, partial curve, poor fit]
66 | Cc1cc(C)n(-c2ccc(Cl)c(C(=O)Nc3ccc(-c4nnc5n4CCCCC5)cc3)n2)n1 | inconclusive: 21% | 
67 | Cc1ccc(N=Cc2ccc(O)cc2O)cc1F | inactive | 
68 | Cc1ccc(-c2nnc3n2N=C(c2ccccc2Br)CS3)cc1 |  | inconclusive: 15.8 µM [rising, partial curve]
69 | COc1ccc(CCNc2nc(C)nc3c2oc2ccccc23)cc1OC |  | inconclusive: 3.16 µM [rising, single point]
70 | CC(C)CC(=O)NC1(C(F)(F)F)C(=O)Nc2c1c(=O)[nH]c(=O)n2Cc1ccco1 (stereo not given) | inconclusive: -11.2% | 
71 | O=C(O)CCCC(=O)Nc1ccc(N2CCCC2)cc1 |  | inconclusive: 25.1 µM [rising, single point]
72 | COc1ccc(-c2cnn(-c3ccccc3)c2N)cc1OC |  | inconclusive: 5.01 µM [rising, single point]
73 | CC(CP(=O)(O)O)NC(=O)Cc1ccccc1 (stereo not given) | inconclusive: 1.96% | 
74 | O=c1c2ccccc2nc(SCc2cn3ccsc3n2)n1-c1ccc(F)cc1 |  | active: 3.98 µM
75 | COc1cc(NC(=O)c2ccco2)c(OC)cc1NC(=O)CCC(=O)Nc1cccc(C)c1C |  | inconclusive: 5.01 µM [falling, single point]
76 | CNC(=O)CSc1nnc(CCc2ccccc2)n1-c1ccccc1 | inconclusive: -1.14% | 
77 | Cc1nn(-c2cccc(Cl)c2)c2c1C(c1cccnc1)C(C#N)=C(N)O2 (stereo not given) | inconclusive: -20.1% | 
78 | CCCCOC(=O)Cc1c(O)c2ccccc2[nH]c1=O | inactive | 
79 | CS(=O)(=O)Nc1cccc(-c2ccc3ncnc(N4CCOCC4)c3c2)c1 |  | inconclusive: 3.98 µM [rising, partial curve]
80 | Cc1ccc(S(=O)(=O)c2nc(S(C)(=O)=O)sc2NCC2CCCO2)cc1 (stereo not given) | inconclusive: 24.1% [at 7.6 µM] | 
